Source: the RNAGym collection of RNA variant scans (doi:10.1093/nar/gkz1192)
The source gives no read counts; variants with many changes may rest on few reads.

B1: CPEB3 Ribozyme (parent)
chain: UAACAGGGGGCCACAGCAGAAGCGUUCACGUCGCAGCCCCUGUCAGAUUCUGGUGAAUCUGCGAAUUCUGCUGUAUAUCUC

Variants of: B1
Assay: self-cleavage, relative activity (ratio to wild type); higher = more cleavage; in vitro, sequencing
Method in brief: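 Libraries of CPEB3 self-cleaving ribozyme mutants came from rounds of error-prone PCR and carried barcodes, which DNA sequencing matched to variants. In vitro transcription used T7 RNA polymerase at 37°C for 5 hours, with a further 15 min in DNase I before EDTA stopped the reaction; the ribozymes cleaved during both steps. The RNA was reverse transcribed with template switching and sequenced on Illumina. Relative activity is the cleaved/total read fraction of a variant divided by that of the unmutated ribozyme, averaged over three batches with at least 5 reads.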
UAGCAGGGGGCCACUGCAGAAGCGUUCACGUCGCAGCCCCUGCCAGAUUCUGGUGGAUCCGCGAAUUCUGCUGUAUAUCUC showed a self-cleavage of 0.18. Work on UAGCAGGGGGCCACAGCAGACGUGUUCACGUCGCAGCCCCUGUCAGAUUCUGGUGAAUCUGCGAAUUCUGCUGUAUAUCUC yielded a self-cleavage of 0.34. UAGCAGGGGGCCACAGCAGAGGCGUACACGUCGCAGCCCGUGUCAGAUUCUGGUGAGUCUGCGAAUUCUGCUGUAUGUCUC gave a self-cleavage of 0.33. UAGCAGGGGGCCACAGCGGAAGCGUUCACGUCGCAGCCCCUGUCAGAUUCCGGUGAAUCUGCGAAUACUGCUGUAUAUCUC showed a self-cleavage of 0.38. With UAGCAGGGGGCCACAGCGGAAGCGUUCACGUCGCAGCCCCUGUCAGAUUCUGGUGAAUCCGCGAAUUCUGCUGUAUAUCUC the self-cleavage was 0.32. For UAGCAGGGGGCCACAGCAGAGGCGUUCACGUCGCAGCCCCUGCCAGAUACUGGCGAGUCUGCGAAUUCUGCUGUAUAUCUC, the self-cleavage was 0.47. UAGCAGGGGGCCACAGCCGAAGCGUUCACGUCGCAGCCCCUGUCAGAUUCUGGUGAAUCCGCGAAUUCUGCCGUAUAUCUC showed a self-cleavage of 0.34. In the case of UAGCAGGGGGCCACAGCAGAUGCGUUCGCGUCGCAGCCCCUGUCAGAUUCUGGUGAAUCUGCGAAUUCUGCAGUAUAUCUC, the self-cleavage is reported as 0.09. In the case of UAGCAGGGGGCCACAGCGGAAGCGUUCACGUCGCAGCCCCUGCCAGAUUCUGGAGAACAUGCGAAUUCUGCUGUAUAUCUC, the self-cleavage is reported as 0.13. For UAGCAGGGGGCCACAGCAGAGGCGUUCACGUCGCAGCCCCAGUCAGAUUCUGGUGAAUCCGCGAAUUCUGCUGUAUAUCUC, the self-cleavage was 0.38. Variant UAGCAGGGGGCCACAGCAGUAGCGUUCACGUCGCAGCCCCUGUCAGAUUCUGGUGAAUCUGCGAAUUCUGCUGUAUGUCAC has a self-cleavage of 0.54. Work on UAGCAGGGGGCCACAGCAGAUGCGUUCACGUCGCAGCCCCUGUCGGAUUCUGGUGAAUCUGCGAAUUCUGCCGUAUAACUC yielded a self-cleavage of 0.39. Variant UAGCAGGGGGCCACAGCUGAAGCGUUCACGUCGCAGCCCCUGUCGGAUUCGUGUGAGUCUGCGAAUUCUGCUGUAUAUCUC has a self-cleavage of 0.08. UAGCAGGGGGCCACUGCAGAAGCGUUCACGUCGCAGCCCCUGCCAGAUUCUGGUGAAUCUGUGAAUUCUGCCGUGUAUCUC showed a self-cleavage of 0.07. Variant UAGCAGGGGGCCACAGCAGAUGUGUUCACGAUGCAGCCCCUGUCAGAUUCUGGUGAGUCCGCGAAUUCUGCUGUAUAUCUC has a self-cleavage of 0.16. Variant UAGCAGGGGGCCACAGCUGAAGCGUUCACGUCGCGGCCCCUGUCAGUUUCUGGUGAAUCUGCGAAUUCUGCUGUAUAUCUC has a self-cleavage of 0.14. For UAGCAGGGGGCCACAGCAGGAGCGUUCACGUCGCAGCCCCUGUCAGAUUCUGGUGAAUCUGCGAAUUCUGCUGUAUGUCUC, the self-cleavage was 0.87. Work on UAGCAGGGGGCCACAGCAGGAGCGUUCACGUCGCAGCCCCUGUCAGAUCCUGGUGAAUCUGCGAAUUCUACUGGAUAUCUC yielded a self-cleavage of 0.1. With UAGCAGGGGGCCACAGCAGUAGCGUUCACGUCGCAGCCCCAGUCUGAUUCUGGGGAAUCUGGGAAUUCUGCUGUAUAUCUC the self-cleavage was 0.04. In the case of UAGCAGGGGGCCACAGCAGUAGCGUUCACGUCGCAGCCCCUGUCAGAUUCUGGUGAAUCUGCGAACUCUGCUGUAUAUCUC, the self-cleavage is reported as 0.34. Variant UAGCAGGGGGCCACAGCUGAUGCGUUCACGUCGCAGCCCCUAUCAGAUUCUGGUGAAUCUACGAAUUCUGCUGUAUAUCUC has a self-cleavage of 0.06. Work on UAGCAGGGGGCCACAGCGGAAGCGUUCACGCCGCAGCCCCUGUCAGAUUCUGGUGAAUCUGCGAAUUCUGCUGUAUAUCUC yielded a self-cleavage of 0.55. In the case of UAGCAGGGGGCCACAGCUGAAGCGUCCACGUCGCAGCCCCUGUCAGAUUCUGGUGAAUCUGCGAACUCUGCUGUAUAUCUC, the self-cleavage is reported as 0.57. In the case of UAGCAGGGGGCCACAGCAGAGGCGUUCACGUCGCAGCCCCUGUCAGAUUCUGGUGAAUCUGCGAAUUCUGCUGUAUAUCAC, the self-cleavage is reported as 0.9. UAGCAGGGGGCCACAGCGGAAGCGAUCACGUCGCAGCCCCUGUCAGAUUCUGGUGAAUCUGCGAAUUCUGCUGUAUAUCUC gave a self-cleavage of 0.13. Work on UAGCAGGGGGCCACUGCAGAAGCGUUCUCGUCGCAGCCCCUGUCAGAUUCUGGUGAAUCUGCGAAUUCUGCUGUAUAUCUU yielded a self-cleavage of 1.24. UAGCAGGGGGCCACAGCGGAAGCGUUCACUUCGCAGCCCCUGUCAGAUUCAGGUGAAUCUGCGAAUUCUGCUGUUUAUCUC gave a self-cleavage of 0.17. UAGCAGGGGGCCACAGCAGGAGCGCUCACGUCGCAGCCCCUGUCAGAUUCUGGUGAAUCUGCGAAUUCUGCCGUAUAUCUC gave a self-cleavage of 0.11. Variant UAGCAGGGGGCCACAGCGGAAGCGCUCACGUCGCAGCCCCUGCCAGAUUCUGGUGUAUCUGCGAAUUCUGCUGUAUAUCUC has a self-cleavage of 0.06. UAGCAGGGGGCCACAGCGGAAGCGUUCACGUCGCAGCCCCUGUCAGACUCUGGUGAAUCUGCGAAAUCUGCUGUAUAUCUC gave a self-cleavage of 0.17. For UAGCAGGGGGCCACAGCGGAAGCGUUCACGUCGCGGCCCCUGUCAGAUUCUGGUGAAUCUGCGGAUUCCGCUGUAUAUCUC, the self-cleavage was 1.26. Work on UAGCAGGGGGCCACAGCAGAUGCGUUCAUGUCGCUGCCCCUGUCAGAUUCUGGUGAAACUGCGAAUUCUGCUGUAUAUCCC yielded a self-cleavage of 0.07. UAGCAGGGGGCCACAGCGGAAGCGUCCACGUCGCAGCCCCUGUCAGGUUCUGGUGAAUCUGCGAAAUCUGCUGUUUAUCUC showed a self-cleavage of 0.26. For UAGCAGGGGGCCACAGCAGAUGCGUUCACGUCGCAGCCCCUGGCAGAUUCUGGUGAAUCUGCGAAUUCUGCUGUAUAUCUC, the self-cleavage was 0.39. Variant UAGCAGGGGGCCACAGCGGAAGCGUUCACGUCGCAGCCCCUGUCUGAUUCUGGUGAAUCUGCGAAUUCUGCUGUAUAUCCC has a self-cleavage of 0.32. For UAGCAGGGGGCCACAGCAGGAGCGUUCACGUCGCAGCCCCUGUCAGAUUCUGGUGAAUCUGCGAAUUCUGCCGUAUAUCUC, the self-cleavage was 1. UAGCAGGGGGCCACAGCCGAAGCGUUCACGUCGCAGCCCCUGUCAGAUUCUGGUGAAUCUGCGAGUCCUGCUGUAUAUCUC showed a self-cleavage of 0.38. Variant UAGCAGGGGGCCACAGCGGAAGCGUUCACGUCGCAGCCCCUGCCAGAUCCUGGUGAAUCUGCGAAGUCUGCUGUAUAUCUC has a self-cleavage of 0.22. UAGCAGGGGGCCACAGCAGUAGCGUUCACGUCGCAGCCCCUGCCAGAUUCUGGUGAAUCCGCGAAUUCUGCUGUAUAUCUC gave a self-cleavage of 0.09. UAGCAGGGGGCCACAGCAGGAGCGUUCACGACGCAGCCCCUGGCAGAUUCUGGUGAAUCUGCGAAUUCUGCUGUAUAACUC gave a self-cleavage of 0.53. Variant UAGCAGGGGGCCACAGCAGCAGCGUUCACGUCGCAGCCCCUGUCAGAUUCUGGCGAAUCUGCGAAUUCUGCUGUAUAUCUC has a self-cleavage of 0.15. UAGCAGGGGGCCACUGCAGAAGCGAUCACGUCGCAGCCCCUGUCAGAUUCUGGUGGAUCUGCGAAUCCUGCUGUAUACCUC showed a self-cleavage of 0.06. Variant UAGCAGGGGGCCACGGCAGAAGCGUUCACGUCGCAGCCCCUGUCAGAUCCUGGUGAAUCUGCGUAUUCUGCUGUAUAUCUC has a self-cleavage of 0.64. Work on UAGCAGGGGGCCACGGCAGAAGCGUUCACGCCGCAGCCCCUGUCAGAUUCUGGUGAAUCUGCGAAUUCCGCUGUAUGUCUC yielded a self-cleavage of 0.22. Variant UAGCAGGGGGCCACAGCUGGAGCCUUCACGUCGCAGCCCCUGUCAGAUUCUGGUGAAUCUGCGAAUUCUGCUGUAUAUCCC has a self-cleavage of 0.17. UAGCAGGGGGCCACAGCAGAGGCGUUCACGUCGCAGCCCCUGUCAGAUUCUGGUGAAUCUGCGAAUUCUGCUGUACAUCUC gave a self-cleavage of 0.83. UAGCAGGGGGCCACUGCUGAAGCGUUCACGUCGGAGCCCCUGUCUGAUUCUGGUGAAUCCGCGAAUUCUGCUGUAUAUCUC gave a self-cleavage of 0.06. Variant UAGCAGGGGGCCACAGCUGAAGCGUUCACGACGCAGCCCCUGUCAGAUUCUGGUGAAUCUGCGAAUUCUGCUGUUUAUCUC has a self-cleavage of 0.53. Variant UAGCAGGGGGCCACUGCAGAGGCGUCCACGUCGCAGUCCCUGUCAGAUUCUGGCGAAUCUGCGAAUUCUGCUGUAUAUCUC has a self-cleavage of 0.13. Variant UAGCAGGGGGCCACAGCGGAAGCGUUCACGUCGCAGCCCCUGCCAGAUUCUGGUGAAUCUGCGAAUUCUGCUGAAUACCUC has a self-cleavage of 0.72. UAGCAGGGGGCCACUGCAGGAGCGUACACGUCACAGCCCCUGUCAGAUUCUGGCGAAUCUGCGAAUUCAGCUGUAUAUCUC showed a self-cleavage of 0.17. UAGCAGGGGGCCACAGCGGAAGCGUUCACGUCGCGGCCCCUGUCAGAUUCUGGUGAAUCUGCGAAUUCUGCUGUAUAUCUC showed a self-cleavage of 1.1. With UAGCAGGGGGCCACAGCGGGAGCGUUCACGUCGCAGCCCCUGUCAGAUUCUGGUGAAUCAGCGAAUUCUGCUGUAUAUCUC the self-cleavage was 0.46. UAGCAGGGGGCCACAGCAGAGGCGUUCACGUCGCAGCCCCUGUCAGAUUCUGGUGAAUCUGCGAAUUCUGCUAUAAAUCUC showed a self-cleavage of 1.04. For UAGCAGGGGGCCACAGCAGAGGCGUUCACGUCACAGCCCCUGUCAGAUUCUGGUGAAUCUGCGAAUUCUGCUGUAUAUCUC, the self-cleavage was 0.13. Work on UAGCAGGGGGCCACAGCAGUAGCGUUCACGCCGCAGCCCCUGACAGAUUCAGGUGAAUCUGCGAAAUCUGCUGUAUAUCUC yielded a self-cleavage of 0.18. UAGCAGGGGGCCACAGCAGAGGCGUUCACGCCGCAGCCCCUGUCAGAUUCUGGUGAAUCUGCGAAUUCUGCUGUAUAUCUC gave a self-cleavage of 0.26. In the case of UAGCAGGGGGCCACAGCUGAAGCGUUCACGUCGCGGCCCCUGUCUGAUUCUGGUGAAUCUGCGAAUUCUGCUGUAUAUCUC, the self-cleavage is reported as 0.3. In the case of UAGCAGGGGGCCACUGCAGAAGCGUUCACGUCGCAGCCCCAGUCAGAUACUGGUGAAUCUGCGAAUUCUGCUGUAUAUCUC, the self-cleavage is reported as 0.39. UAGCAGGGGGCCACUGCAGAAGCGUCCACGUCGCAGCCCCUGUCAGAUUCUGGUGAGUCUGCGAAUUCUGCUGUAUAUCUC showed a self-cleavage of 0.21. In the case of UAGCAGGGGGCCACAGCAGGAGCGUUCACGUCGCAGCCCCGGUCAGAUUCUGGUGAAACUGCGAAUUCUGCUGUAUAUCUC, the self-cleavage is reported as 0.38. In the case of UAGCAGGGGGCCACAGCAGGAGCGUUCACGUCGCAGCCCCCGCCAGACUCUGGUGAAUCUGCGAUUUCUGCUGUAUAUCUC, the self-cleavage is reported as 0. In the case of UAGCAGGGGGCCACGGCAGAAGCGUUCACGCCGCAGCCCCUGUCAGAUUCCGGCGAAUCUGCGAAUCCUGCUGUAUAUCUC, the self-cleavage is reported as 0.62. In the case of UAGCAGGGGGCCACAGCAGAGGCGUUCACGUCGCAGCCCCUGUCAGAUUCUGGUGAAUCUGCGAAUUCUGCCGUAUAUCUC, the self-cleavage is reported as 0.88. Work on UAGCAGGGGGCCACAGCAGAGGCGUUCCCGUCGCAGCCCCUGUCAGGUUCUGGUGAUUCUGCGAAUUCUGCUGUAUAUCAC yielded a self-cleavage of 0.13. UAGCAGGGGGCCACAGCAGAGGCGUUCACGUCGCUGCCCCUGUCAGAUACUGGUGAAUCUGCGAAUUCUGCUGUACAUCUC gave a self-cleavage of 0.15. With UAGCAGGGGGCCACAGCAGGAGCGCUCACGCCGCAGCCCCUGUCAGAUACUGGUGAAUCUGCGAACUCUGCUGUAUAUCUC the self-cleavage was 0.04. For UAGCAGGGGGCCACAGCAGGAGCGUUCACGUCGCAGCCCCUGUCAGGUUCUGGUGGAUCUGCGAAAUCAGCUGUAUAUCUC, the self-cleavage was 0.2.
